Hit rate of the full screen: of about 110,000 compounds, about 230 (0.21%) showed an effect of 50% or more. Some of the results follow.
biological target: DPAP1 (Plasmodium falciparum, UniProt Q8IIJ9); experiment: primary screen, percent inhibition; read by cleavage of a fluorogenic dipeptide substrate; higher = more effect of the substance; design: species or system P. falciparum D10 trophozoite lysates; single well
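Note: 30 min substrate incubation versus DMSO and 10 µM JCP410 controls.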

Sequence of DPAP1 (Q8IIJ9 whole entry, looked up): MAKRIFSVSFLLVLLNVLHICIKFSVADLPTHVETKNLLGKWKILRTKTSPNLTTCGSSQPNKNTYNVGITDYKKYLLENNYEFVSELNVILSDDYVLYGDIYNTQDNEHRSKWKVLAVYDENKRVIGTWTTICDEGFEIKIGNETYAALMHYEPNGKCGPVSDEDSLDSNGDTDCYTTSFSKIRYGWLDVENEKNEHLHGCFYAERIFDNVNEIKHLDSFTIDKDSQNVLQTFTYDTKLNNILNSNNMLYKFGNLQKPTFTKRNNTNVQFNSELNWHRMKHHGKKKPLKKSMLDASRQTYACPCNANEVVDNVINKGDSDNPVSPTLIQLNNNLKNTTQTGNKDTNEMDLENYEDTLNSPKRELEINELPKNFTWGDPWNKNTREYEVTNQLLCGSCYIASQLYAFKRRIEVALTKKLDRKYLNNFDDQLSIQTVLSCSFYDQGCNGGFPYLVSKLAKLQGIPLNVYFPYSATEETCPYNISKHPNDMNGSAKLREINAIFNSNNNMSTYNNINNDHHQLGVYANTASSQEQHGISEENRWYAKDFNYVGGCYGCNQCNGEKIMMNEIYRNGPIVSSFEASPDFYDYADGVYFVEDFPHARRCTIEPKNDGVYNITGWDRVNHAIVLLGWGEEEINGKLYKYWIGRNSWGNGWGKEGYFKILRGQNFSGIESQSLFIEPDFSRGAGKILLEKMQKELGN

First: O=C(NCc1ccccc1Cl)C1CCN(c2nnc(-n3cccc3)s2)CC1
Second: O=C(c1cnn(-c2ccccc2)c1-n1cccc1)N1CCCCC1
The “% Inhibition @ 10 uM” value of the first is higher: 0.0882% for the first, -1.58% for the second.

Going from `COc1ccc2c(c1)OCC/C2=N\OC(=O)c1cccc2ccccc12` to `COc1ccc(-c2c(C)c3c(n2C)C(c2ccccc2)Oc2ccccc2-3)cc1` (stereo not shown), the “% Inhibition @ 10 uM” value rises from -3.74% to -1.5%.

Compared with `O=C(NCCN1CCOCC1)C(=O)NCC1COc2ccccc2O1` (stereo not shown), `OC(COCC1COc2ccccc2O1)CN1CCCCC1` (stereo not shown) is higher in “% Inhibition @ 10 uM” value: -0.834% for the first, 2.73% for the second.

First: CC(C)c1ccccc1OCC(=O)Nc1ccc(C#N)cc1
Second: N#Cc1ccc(C(=O)Nc2ccc(-c3nc4ccccc4s3)cc2)cc1
The “% Inhibition @ 10 uM” value of the first is higher: 1.93% for the first, -2.12% for the second.

First: CCn1c(C)c2c(C)nn3cc(C)cc3c2c1C
Second: CCOC(=O)c1cc(-c2ccc(F)cc2)n(CC(=O)Nc2nccs2)c1C
The “% Inhibition @ 10 uM” value of the first is higher: 0.558% for the first, -7.35% for the second.

Compared with `CC(=O)OCc1csc(N[C@@H](CC(C)C)C(=O)NCC#N)n1`, `CC(C)C[C@H](NC(=O)N1CCN(C(c2ccccc2)c2ccccc2)CC1)C(=O)NCC#N` is higher in “% Inhibition @ 10 uM” value: -3.04% for the first, 1.35% for the second.

First: O=C(c1ccccc1C(=O)N1CCOCC1)N1CCOCC1
Second: O=C(CSc1nc2c(c(C(F)(F)F)n1)CCc1ccccc1-2)N1CCOCC1
The “% Inhibition @ 10 uM” value of the first is lower: -0.0369% for the first, 0.0289% for the second.

First: CN(Cc1ccco1)Cc1nc2ccccc2c(=O)n1-c1ccc(F)cc1
Second: Cc1cc(C)c2oc(C(=O)N(Cc3ccccc3)Cc3ccco3)cc(=O)c2c1
The “% Inhibition @ 10 uM” value of the first is lower: 1.73% for the first, 5.06% for the second.

First: CCCc1[nH]nc2c1C(c1ccc(OC)cc1)C(C#N)=C(N)O2 (stereo not shown)
Second: CCCOc1ccc(C2C(C#N)=C(N)Oc3[nH]nc(CCC)c32)cc1OCC (stereo not shown)
The “% Inhibition @ 10 uM” value of the first is lower: -2.89% for the first, 2.38% for the second.

Compared with `CCc1ccc(C2C(C(C)=O)=C(O)C(=O)N2CCc2c[nH]c3ccccc23)cc1` (stereo not shown), `Cn1c2ccccc2c2cnn(CC(=O)NCCc3ccc(S(N)(=O)=O)cc3)c(=O)c21` is lower in “% Inhibition @ 10 uM” value: 5.03% for the first, -7.36% for the second.

First: Cc1nc(S)nc(O)c1Cc1ccc(C(=O)O)o1
Second: Cc1ccc(OCc2ccc(C(=O)O)cc2)cc1C
The “% Inhibition @ 10 uM” value of the first is lower: -7.04% for the first, 5.3% for the second.

Going from `O=C(c1ccc(Cl)c([N+](=O)[O-])c1)N1CCCCCC1` to `Clc1ccc(OCCCCN2CCCC2)c(Cl)c1`, the “% Inhibition @ 10 uM” value falls from 1.55% to -5.16%.

Going from `Cc1oc2ccc(O)c(CN3CCN(Cc4ccccc4)CC3)c2c1C(=O)NC1CCCC1` to `O=C(COc1ccc(S(=O)(=O)NCc2ccccc2)cc1)NC1CCCCC1`, the “% Inhibition @ 10 uM” value rises from -8.69% to -2.65%.

Compared with `COC(=O)c1sccc1NC(=S)N(C)CCC#N`, `COCc1cc(C)nc(SCC(=O)Nc2ccc(C(C)=O)cc2)c1C#N` is lower in “% Inhibition @ 10 uM” value: 0.121% for the first, -3.46% for the second.

Compared with `N#CC1=C(N)Oc2c(cc(Cl)c3ccccc23)C1c1ccccc1` (stereo not shown), `N#CC1=C(N)OC2=C(C(=O)CCC2)C1c1ccc(C(F)(F)F)cc1` (stereo not shown) is lower in “% Inhibition @ 10 uM” value: 0.536% for the first, -8.11% for the second.

Compared with `O=C(CN1C(=O)S/C(=C\c2cc3c(cc2Br)OCO3)C1=O)c1ccccc1`, `Cc1c(CNC(=O)c2cc(-c3ccc4c(c3)OCO4)nc3ccccc23)cnn1C` is higher in “% Inhibition @ 10 uM” value: 0.161% for the first, 2.32% for the second.

Going from `CCCn1c(=O)c2sccc2n2c(CCCC(=O)NCCc3cc(OC)ccc3OC)nnc12` to `CCCn1c(=O)c2sccc2n2c(CCCC(=O)N(C)Cc3ccco3)nnc12`, the “% Inhibition @ 10 uM” value rises from 2.33% to 2.45%.

Compared with `CC1(C)CC(C(CC(=O)O)c2ccccc2)CCO1` (stereo not shown), `CC1=CC(C)C2(CO)COC(c3ccccc3)C1C2C` (stereo not shown) is higher in “% Inhibition @ 10 uM” value: -4.8% for the first, 4.65% for the second.

Going from `N#CC1=C(N)Oc2[nH]nc(-c3cccs3)c2C12C(=O)Nc1ccccc12` (stereo not shown) to `Cc1cccc2ccc(C3C(=O)c4cccc5cccc(c45)C3=O)nc12`, the “% Inhibition @ 10 uM” value falls from 3.05% to -1.47%.

Compared with `CCn1c(=O)c2sccc2n2c(CCC(=O)NCCc3ccc(S(N)(=O)=O)cc3)nnc12`, `Cc1nn(C(C)C(=O)NCc2ccc(Cl)cc2)c(=O)c2cc3sccc3n12` (stereo not shown) is higher in “% Inhibition @ 10 uM” value: -0.326% for the first, 3.4% for the second.

Going from `Cc1ncc(CO)c2cc(-c3nnc(NCc4ccc(F)cc4)s3)c(=O)oc12` to `C=CCn1c(SCC(=O)c2ccc(F)cc2)nc2sc(CC)cc2c1=O`, the “% Inhibition @ 10 uM” value falls from 11.4% to -7.58%.

Going from `COc1ccccc1/C=C/CN1CCC(Cc2ccccc2)CC1` to `Cc1ccccc1OCCn1cnc2ccccc21`, the “% Inhibition @ 10 uM” value rises from -5.94% to 5.3%.

First: COc1cc(C2CC(=O)NC3=C2C(=O)CC(c2cccs2)C3)c(OC)cc1Br (stereo not shown)
Second: COc1ccc(N2C(N)=C(C#N)C(c3cc(OC)c(OC)c(OC)c3)C3=C2CCCC3=O)cc1 (stereo not shown)
The “% Inhibition @ 10 uM” value of the first is higher: 1.97% for the first, -4.76% for the second.

Compared with `CN1CCC(NCc2ccc(Cl)cc2)CC1`, `CCOC(=O)C1CCN(Cc2ccc(OC)cc2)CC1` is lower in “% Inhibition @ 10 uM” value: 7.67% for the first, 0.317% for the second.

Going from `CCN1N=C2/C(=C/c3ccc(C)cc3)CNCC2C1c1ccc(C)cc1` (stereo not shown) to `CCOc1cccc2c1OC(c1ccc(C(=O)OC)cc1)N1N=C(c3cccnc3)CC21` (stereo not shown), the “% Inhibition @ 10 uM” value falls from 8.63% to -1.46%.

Compared with `Cc1ccc(C(=O)N/C(=C/c2ccccc2F)C(=O)NCc2ccccc2)cc1`, `O=C(NCCc1ccccc1)Nc1cnc2ccccc2c1O` is lower in “% Inhibition @ 10 uM” value: 2.01% for the first, -2.84% for the second.

Compared with `Cc1cc(/C=C(/C#N)C(=O)Nc2ccc(Cl)cc2)c(C)n1-c1ccc2c(c1)OCO2`, `COc1ccc(-n2c(C)cc(/C=C3/C(=N)N4C=CSC4=NC3=O)c2C)cc1Cl` is lower in “% Inhibition @ 10 uM” value: 1% for the first, -2.98% for the second.

Going from `O=C1/C(=C\c2cccnc2)CN(Cc2ccccc2)C/C1=C\c1cccnc1` to `CC(Cc1ccccc1)NC1=NS(=O)(=O)c2ccccc21` (stereo not shown), the “% Inhibition @ 10 uM” value rises from 0.287% to 0.634%.

Compared with `CC(C(=O)Nc1sc2c(c1C(=O)NCC1CCCO1)CCCC2)N1C(=O)c2ccccc2C1=O` (stereo not shown), `N#Cc1c(N/C=C2/C(=O)NC(=O)N(c3cccc(Cl)c3)C2=O)sc2c1CCC2` is lower in “% Inhibition @ 10 uM” value: 1.61% for the first, -2.54% for the second.

Compared with `COc1ccc(Nc2nc3c(s2)CCCC3)cc1`, `COc1ccc(/C=C2/SC(N3CCC(C)CC3)=NC2=O)cc1` is higher in “% Inhibition @ 10 uM” value: 3.25% for the first, 4.44% for the second.

Going from `O=C(CC(NCCN1CCOCC1)C(=O)O)Nc1cccc(Cl)c1Cl` (stereo not shown) to `O=C(NCCCN1CCOCC1)c1ccc(CS(=O)c2ccccc2)o1` (stereo not shown), the “% Inhibition @ 10 uM” value falls from 1.73% to -1.28%.

Compared with `c1ccc2c(c1)OCC(c1nn3cnnc3s1)O2` (stereo not shown), `Cc1ccccc1Cn1cc(NC(=O)c2onc(C)c2Cl)cn1` is lower in “% Inhibition @ 10 uM” value: 3.88% for the first, 1.62% for the second.

Going from `O=C1C2CC=CCC2C(=O)N1c1cccc(Cl)c1Cl` (stereo not shown) to `CC(=O)c1ccc(N2C(=O)C3CCC(C)CC3C2=O)cc1` (stereo not shown), the “% Inhibition @ 10 uM” value falls from 0.147% to -6.07%.

First: O=C(Nc1ccc(Br)cc1F)C1CC(=O)N(c2ccc(Cl)cc2)C1 (stereo not shown)
Second: O=C(CCCN1C(=O)C(c2ccccc2)Oc2cccnc21)NCCc1ccc(Cl)cc1 (stereo not shown)
The “% Inhibition @ 10 uM” value of the first is higher: 4.57% for the first, -6.61% for the second.

First: COc1ccc(-n2c3c(c(=O)[nH]c2=O)C(C(F)(F)F)(C(F)(F)F)NC(c2ccco2)=N3)cc1
Second: COc1ccc(-c2cc(C(F)(F)F)nc(SCC(=O)NCc3cccnc3)n2)cc1
The “% Inhibition @ 10 uM” value of the first is lower: -3.62% for the first, -2.31% for the second.

Compared with `COc1ccc(N(CC(=O)Nc2cccc(Cl)c2)S(C)(=O)=O)cc1OC`, `Cc1cccc(C)c1OCC(=O)Nc1ccc(S(=O)(=O)N2CCCC2)cc1` is lower in “% Inhibition @ 10 uM” value: 3.66% for the first, -5.14% for the second.

Compared with `CC(=O)C1=C(Nc2ccccc2)SC(c2ccccc2)CC1=O` (stereo not shown), `CCOc1ccccc1NC(=O)c1ccccc1OCC` is lower in “% Inhibition @ 10 uM” value: 3.99% for the first, 0.316% for the second.

Compared with `CC(C)/C=C1\CC/C(=C\c2ccncc2)C1=O`, `CC(C)NS(=O)(=O)c1ccc(CCC(=O)N2CCc3ccccc3C2)cc1` is lower in “% Inhibition @ 10 uM” value: 1.07% for the first, 0.528% for the second.

Going from `COc1ccc(-c2noc(CN(C(=O)NC3CCCCC3)C3CCCCC3)n2)cc1OC` to `COc1cccc(CNC2CCCCC2)c1O`, the “% Inhibition @ 10 uM” value falls from 6.34% to -0.386%.

Compared with `CCOc1ccc(Cn2nnc(C(=O)NCc3ccc(Cl)cc3Cl)c2N)cc1`, `CN(C)S(=O)(=O)c1ccc(C(=O)NCc2nnc(S)n2-c2ccccc2Cl)cc1` is lower in “% Inhibition @ 10 uM” value: 3.49% for the first, 3.34% for the second.

Going from `CCOC(=O)c1c(C)oc2c1c1c(c3ccccc32)OCN(CCCC(=O)O)C1` to `O=C1c2ccccc2C(=O)N1CCCO`, the “% Inhibition @ 10 uM” value falls from 8.12% to -0.256%.

Going from `COc1cc(S(=O)(=O)N2CCNCC2)ccc1-n1cnnn1` to `c1cc(N2CCNCC2)nc(N2CCNCC2)n1`, the “% Inhibition @ 10 uM” value falls from -4.19% to -4.96%.

First: O=C(NCCCN1CCOCC1)c1ccc2nc(N3CCCCC3)sc2c1
Second: O=C(Nc1nc2ccccc2s1)C1CCCN(c2ncnc3onc(-c4ccc(F)cc4)c23)C1 (stereo not shown)
The “% Inhibition @ 10 uM” value of the first is lower: -9.91% for the first, -2.16% for the second.

First: CN(C)CCCN(C(=O)CCS(=O)(=O)c1ccccc1)c1nc2c(F)cccc2s1
Second: O=C1c2cccc3cccc(c23)C(=O)N1CCN1CCN(S(=O)(=O)c2ccccc2)CC1
The “% Inhibition @ 10 uM” value of the first is higher: 2.72% for the first, -1.59% for the second.

Compared with `CC1CN(Cc2cccnc2)CC(C)O1` (stereo not shown), `COc1c(O)cnn(-c2ccccc2)c1=O` is lower in “% Inhibition @ 10 uM” value: 5.73% for the first, -5.32% for the second.

Compared with `CCC1CCC(N(CCO)CCO)CC1` (stereo not shown), `CCOC(=O)/C(=C\N(C)C)C(=O)C1CCN(C(=O)OC(C)(C)C)CC1` is lower in “% Inhibition @ 10 uM” value: -0.0648% for the first, -1.08% for the second.

Compared with `O=C(Cc1ccccc1)Nc1nccs1`, `Cn1c(C(=O)NCc2ccccn2)cc2sc(Cl)cc21` is lower in “% Inhibition @ 10 uM” value: -0.769% for the first, -8.58% for the second.

Going from `O=[N+]([O-])c1cc2c(cc1CN1CCSCC1)OCO2` to `Cc1ccc(C(=O)N2CCN(c3ccc(NC(=O)c4cccs4)cc3)CC2)cc1`, the “% Inhibition @ 10 uM” value falls from -1.98% to -6.39%.

First: CCC(C)NC(=O)CSc1nc(-c2ccccc2)cc(C(F)(F)F)n1 (stereo not shown)
Second: COc1cc(/C=C2/C(=N)N3C(c4ccccc4)=CSC3=NC2=O)ccc1OCC(=O)O
The “% Inhibition @ 10 uM” value of the first is lower: -7.35% for the first, 3.15% for the second.

Going from `CC1=CC(C)(C)Nc2ccc(OC(=O)C3CCCO3)cc21` (stereo not shown) to `CC1=C(C#N)C(c2ccc(N(C)C)cc2)C2=C(O)CCCC2=N1` (stereo not shown), the “% Inhibition @ 10 uM” value falls from 2.22% to -6.17%.
